# Measured values reported in the supplement of paper PMC8728848.
# This is one part of the list.
# B1: CBM40 CPF071 (Clostridium perfringens) (protein)
# chain: MAHHHHHHVGTGSNDDDDKSPDPMLSSLGEYKDINLESSNASNITYDLEKYKNLDEGTIVVRFNSKDSKIQSLLGISNSKTKNGYFNFYVTNSRVGFELRNQKNEGNTQNGTENLVHMYKDVALNDGDNTVALKIEKNKGYKLFLNGKMIKEVKDTNTKFLNNIENLDSAFIGKTNRYGQSNEYNFKGNIGFMNIYNEPLGDDYLLSKTGETK
# Legend:
# Test in all cases: glycan array binding signal (z-score within array); higher = stronger binding
# Conditions in all cases: glycan notation: IUPAC condensed, linker removed
# [1] = target: GlcNAc(b1-4)GlcNAc(b1-4)GlcNAc(b1-4)GlcNAc(b1-4)GlcNAc(b1-4)GlcNAc
# Outline: (§1)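 The binding signal is a Z-score computed within each array and averaged over linkers. Arrays of the same protein sequence at different concentrations or buffers were also averaged together. Data originate from 3228 arrays in the Consortium for Functional Glycomics database, kept only where the protein sequence was available.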
# [2] = target: GlcNAc(b1-4)[GlcNAc(b1-6)]GalNAc
# Outline: as §1
# [3] = target: GlcNAc(b1-6)Gal(b1-4)GlcNAc
# Outline: as §1
# GlcNAc(b1-6)GalNAc = target: GlcNAc(b1-6)GalNAc
# Outline: as §1
# [4] = target: GlcNAc6S(b1-3)Gal(b1-4)GlcNAc
# Outline: as §1
# Kdn(a2-3)Gal(b1-3)GalNAc = target: Kdn(a2-3)Gal(b1-3)GalNAc
# Outline: as §1
# Kdn(a2-3)Gal(b1-3)GlcNAc = target: Kdn(a2-3)Gal(b1-3)GlcNAc
# Outline: as §1
# Kdn(a2-3)Gal(b1-4)Glc = target: Kdn(a2-3)Gal(b1-4)Glc
# Outline: as §1
# Kdn(a2-3)Gal(b1-4)GlcNAc = target: Kdn(a2-3)Gal(b1-4)GlcNAc
# Outline: as §1
# [5] = target: Kdn(a2-3)Gal(b1-4)[Fuc(a1-3)]GlcNAc
# Outline: as §1
# Kdn(a2-6)Gal(b1-4)GlcNAc = target: Kdn(a2-6)Gal(b1-4)GlcNAc
# Outline: as §1
# [6] = target: Man(a1-2)Man(a1-2)Man(a1-3)Man
# Outline: as §1
# [7] = target: Man(a1-2)Man(a1-2)Man(a1-6)[Man(a1-3)]Man
# Outline: as §1
# Man(a1-2)Man(a1-3)Man = target: Man(a1-2)Man(a1-3)Man
# Outline: as §1
# [8] = target: Man(a1-2)Man(a1-3)[Man(a1-2)Man(a1-6)]Man
# Outline: as §1
# [9] = target: Man(a1-2)Man(a1-3)[Man(a1-2)Man(a1-6)]Man(a1-6)[Man(a1-2)Man(a1-2)Man(a1-3)]Man
# Outline: as §1
# [10] = target: Man(a1-2)Man(a1-3)[Man(a1-2)Man(a1-6)]Man(a1-6)[Man(a1-2)Man(a1-2)Man(a1-3)]Man(b1-4)GlcNAc(b1-4)GlcNAc
# Outline: as §1
# [11] = target: Man(a1-2)Man(a1-3)[Man(a1-6)]Man(a1-6)[Man(a1-2)Man(a1-3)]Man(b1-4)GlcNAc(b1-4)GlcNAc
# Outline: as §1
# [12] = target: Man(a1-2)Man(a1-6)[Man(a1-3)]Man(a1-6)[Man(a1-2)Man(a1-2)Man(a1-3)]Man
# Outline: as §1
# [13] = target: Man(a1-2)Man(a1-6)[Man(a1-3)]Man(a1-6)[Man(a1-2)Man(a1-2)Man(a1-3)]Man(b1-4)GlcNAc(b1-4)GlcNAc
# Outline: as §1
# Man(a1-3)[Man(a1-6)]Man = target: Man(a1-3)[Man(a1-6)]Man
# Outline: as §1
# [14] = target: Man(a1-3)[Man(a1-6)]Man(a1-6)[Man(a1-2)Man(a1-3)]Man(b1-4)GlcNAc(b1-4)GlcNAc
# Outline: as §1
# [15] = target: Man(a1-3)[Man(a1-6)]Man(a1-6)[Man(a1-3)]Man
# Outline: as §1
# [16] = target: Man(a1-3)[Man(a1-6)]Man(a1-6)[Man(a1-3)]Man(b1-4)GlcNAc(b1-4)GlcNAc
# Outline: as §1
# [17] = target: Man(a1-3)[Man(a1-6)]Man(b1-4)GlcNAc(b1-4)GlcNAc
# Outline: as §1
# [18] = target: Man(a1-3)[Man(a1-6)]Man(b1-4)GlcNAc(b1-4)[Fuc(a1-6)]GlcNAc
# Outline: as §1
# Man(a1-6)Man = target: Man(a1-6)Man
# Outline: as §1
# Man(b1-4)GlcNAc = target: Man(b1-4)GlcNAc
# Outline: as §1
# MurNAc(b1-4)GlcNAc = target: MurNAc(b1-4)GlcNAc
# Outline: as §1
# Neu5Ac(a2-3)Gal = target: Neu5Ac(a2-3)Gal
# Outline: as §1
# [19] = target: Neu5Ac(a2-3)Gal(b1-3)GalNAc
# Outline: as §1
# [20] = target: Neu5Ac(a2-3)Gal(b1-3)GalNAc(b1-3)Gal(a1-4)Gal(b1-4)Glc
# Outline: as §1
# [21] = target: Neu5Ac(a2-3)Gal(b1-3)GalNAc(b1-4)Gal(b1-4)Glc
# Outline: as §1
# [22] = target: Neu5Ac(a2-3)Gal(b1-3)GalNAc(b1-4)[Neu5Ac(a2-3)]Gal(b1-4)Glc
# Outline: as §1
# [23] = target: Neu5Ac(a2-3)Gal(b1-3)GalNAc(b1-4)[Neu5Ac(a2-8)Neu5Ac(a2-3)]Gal(b1-4)Glc
# Outline: as §1
# [24] = target: Neu5Ac(a2-3)Gal(b1-3)GalNAc6S
# Outline: as §1
# [25] = target: Neu5Ac(a2-3)Gal(b1-3)GlcNAc
# Outline: as §1
# [26] = target: Neu5Ac(a2-3)Gal(b1-3)GlcNAc(b1-2)Man
# Outline: as §1
# [27] = target: Neu5Ac(a2-3)Gal(b1-3)GlcNAc(b1-2)Man(a1-3)[GlcNAc(b1-4)][Neu5Ac(a2-3)Gal(b1-3)GlcNAc(b1-2)Man(a1-6)]Man(b1-4)GlcNAc(b1-4)GlcNAc
# Outline: as §1
# [28] = target: Neu5Ac(a2-3)Gal(b1-3)GlcNAc(b1-2)Man(a1-3)[Neu5Ac(a2-3)Gal(b1-3)GlcNAc(b1-2)Man(a1-6)]Man(b1-4)GlcNAc(b1-4)GlcNAc
# Outline: as §1
# [29] = target: Neu5Ac(a2-3)Gal(b1-3)GlcNAc(b1-2)[Neu5Ac(a2-3)Gal(b1-3)GlcNAc(b1-4)]Man(a1-6)[Neu5Ac(a2-3)Gal(b1-3)GlcNAc(b1-2)Man(a1-3)]Man(b1-4)GlcNAc(b1-4)GlcNAc
# Outline: as §1
# [30] = target: Neu5Ac(a2-3)Gal(b1-3)GlcNAc(b1-3)Gal(b1-3)GlcNAc
# Outline: as §1
# [31] = target: Neu5Ac(a2-3)Gal(b1-3)GlcNAc(b1-3)Gal(b1-4)GlcNAc
# Outline: as §1
# [32] = target: Neu5Ac(a2-3)Gal(b1-3)GlcNAc(b1-3)GalNAc
# Outline: as §1
# [33] = target: Neu5Ac(a2-3)Gal(b1-3)GlcNAc(b1-6)GalNAc
# Outline: as §1
binder,measurement,setting,value
B1,glycan array binding signal (z-score),[1],-0.098
same,glycan array binding signal (z-score),[2],0.426
same,glycan array binding signal (z-score),[3],-0.449
same,glycan array binding signal (z-score),GlcNAc(b1-6)GalNAc,-0.334
same,glycan array binding signal (z-score),[4],0.527
same,glycan array binding signal (z-score),Kdn(a2-3)Gal(b1-3)GalNAc,-0.605
same,glycan array binding signal (z-score),Kdn(a2-3)Gal(b1-3)GlcNAc,-0.464
same,glycan array binding signal (z-score),Kdn(a2-3)Gal(b1-4)Glc,-0.105
same,glycan array binding signal (z-score),Kdn(a2-3)Gal(b1-4)GlcNAc,-0.456
same,glycan array binding signal (z-score),[5],-0.267
same,glycan array binding signal (z-score),Kdn(a2-6)Gal(b1-4)GlcNAc,-0.181
same,glycan array binding signal (z-score),[6],-0.106
same,glycan array binding signal (z-score),[7],-0.062
same,glycan array binding signal (z-score),Man(a1-2)Man(a1-3)Man,0.099
same,glycan array binding signal (z-score),[8],-0.436
same,glycan array binding signal (z-score),[9],-0.316
same,glycan array binding signal (z-score),[10],-0.148
same,glycan array binding signal (z-score),[11],-0.527
same,glycan array binding signal (z-score),[12],-0.657
same,glycan array binding signal (z-score),[13],-0.368
same,glycan array binding signal (z-score),Man(a1-3)[Man(a1-6)]Man,-0.488
same,glycan array binding signal (z-score),[14],-0.481
same,glycan array binding signal (z-score),[15],-0.282
same,glycan array binding signal (z-score),[16],0.051
same,glycan array binding signal (z-score),[17],-0.376
same,glycan array binding signal (z-score),[18],0.052
same,glycan array binding signal (z-score),Man(a1-6)Man,-0.423
same,glycan array binding signal (z-score),Man(b1-4)GlcNAc,-0.187
same,glycan array binding signal (z-score),MurNAc(b1-4)GlcNAc,0.15
same,glycan array binding signal (z-score),Neu5Ac(a2-3)Gal,0.159
same,glycan array binding signal (z-score),[19],-0.019
same,glycan array binding signal (z-score),[20],-0.106
same,glycan array binding signal (z-score),[21],0.298
same,glycan array binding signal (z-score),[22],0.789
same,glycan array binding signal (z-score),[23],-0.469
same,glycan array binding signal (z-score),[24],1.2
same,glycan array binding signal (z-score),[25],0.994
same,glycan array binding signal (z-score),[26],-0.238
same,glycan array binding signal (z-score),[27],-0.468
same,glycan array binding signal (z-score),[28],-0.391
same,glycan array binding signal (z-score),[29],2.77
same,glycan array binding signal (z-score),[30],-0.044
same,glycan array binding signal (z-score),[31],-0.328
same,glycan array binding signal (z-score),[32],0.544
same,glycan array binding signal (z-score),[33],0.533
